According to publication PMC10726135:
This is one part of the list. At the low end of the ranking, values are background and their order means little. Measured with an extract: partners may take part in the binding.

Target: T1, HNF4alpha2 (COS-7 nuclear extract) (UniProt P41235)
T1 sequence: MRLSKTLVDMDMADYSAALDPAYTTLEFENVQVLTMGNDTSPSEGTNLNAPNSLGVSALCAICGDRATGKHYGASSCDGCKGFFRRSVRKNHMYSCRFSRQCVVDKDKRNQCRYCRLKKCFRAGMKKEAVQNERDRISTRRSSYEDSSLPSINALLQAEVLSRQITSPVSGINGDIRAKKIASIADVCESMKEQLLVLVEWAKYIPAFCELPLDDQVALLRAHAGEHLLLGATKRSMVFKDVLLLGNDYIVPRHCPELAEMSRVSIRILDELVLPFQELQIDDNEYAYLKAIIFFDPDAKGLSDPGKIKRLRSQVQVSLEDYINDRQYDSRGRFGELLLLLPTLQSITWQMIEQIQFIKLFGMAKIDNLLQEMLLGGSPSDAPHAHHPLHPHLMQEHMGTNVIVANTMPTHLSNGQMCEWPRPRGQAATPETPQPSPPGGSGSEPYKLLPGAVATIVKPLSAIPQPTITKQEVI
Test: protein-binding microarray
Conditions: COS-7 nuclear extract on double-stranded Agilent 4x180k PBM; binding buffer, salt, pH and temperature not given; high values mean tight binding; double strand, one strand shown; sequences stand for … in …GCCTAGGGAGATTAGAGTATCGGTCGA

Sequence	binding signal (log2 normalized intensity)
TCTCTGGGGGTCAGAAGTCCAACATTAGTA	4.35
AGCCCAGAGACAGTGGAATCTACAGAATTC	-1.06
CGCCCAGTCCCGCCGCTTCCCCACCCCCTC	5.68
TGTGACCTCCAACTATTGCTCAGCAGGGAG	-1.06
GCGGGGAGTCTCCTGGGTAATCACCAAACT	-1.16
AGGCAGCTAGGCAGGCTCAGAACTACCAAT	-1.14
GACAAAGTGTCACAAACTATCAGTGAAGAG	-0.865
ATTCTCTTATCTACTTTAAGATTTGACCCT	5
CCCAGAGGTCACACTGATACAGCATGGCCC	-1.1
GCCTCAGATTAATGTCAGCCTGCTCAGGGA	-1.22
GGTTCCCCTTCCCCCAACAGGGCTCCTGTT	3.41
TGAGTGCTTCTTGAATGAAGGAACAGGTTC	0.988
ATGATCAAAGGTTAGTCTTAGGACCACATG	2.49
ACAGAAATCATGTAGCCAGATAAGAGCTAT	-1.17
GGCAAAATGGCATATCTAGGATCACGCCAT	-1.21
CCGCCTCCACACCCCAGCCTGCCCTCCTAG	3.47
ACTGCAGAAACTCTGCAGTAACTGTCATGG	0.921
TACTGGATATAGCCAGATGTCCTTTGAAGA	1.2
AATCTGGCTAATGCATGTCCCTCCTCAACC	1.34
GGTGGACATGGTTCACTGATTACTGGATGT	1.82
TCATGATGGGAAGCCTCAGGAGTTGGAGGA	-0.851
GGGGAGCAGGCAGAGGAACAGAGGGGTCTG	-0.908
GATATTTTGAGGGCTCAAAGGTTACCACCC	4.06
CGACTGGGCCAGGAGCAGGAGCAGAAGCAG	-1.03
GAAAAGAAATGTAGTGACAGAAGGGAGAGT	-1.14

Sequence	binding signal (log2 normalized intensity)
TAGTAAATATTAGGCAAGCTAAGATGAGGG	-0.853
TTATCTGAATCTGGAATCACGTTCGCCTAA	-1.16
TTTCTGAACACTCCAAGGTGTCCAGCTTAG	-1.1
GGCTTTATCTGTGAGAATCCCAGCTCGTGG	-1.09
CCTGAAAGGCCAAGCCAGTTTCCAGGGAGG	-1.12
AGGTGCAAAGTACATATTTACTTACCTTTT	3.37
AGCAAGAATGTAAATAGCTAGGTACTTTGA	1.42
ATATTGCAGTGTAGATTAAATCCTCGAAGA	-0.897
GATTTCTAGTTAATATCTAAGATGTAGCTG	-0.751
GTCAGGGTTCTCAGACCACCAGCTGCTTCG	-1.04
AATGATACCAACAGGCTTAACATAAAGGGT	-0.71
CAATAATCTTTGCCCTTGAAGATACAGTTA	1.83
CCTTGAAACCCCTCCTTACAGTGCCCTCTG	3.94
TTTTTTCTTATCTCACTGGATGTGTACCTC	2.21
CCCACAGGGGTAGAAGCTGAGCAGCAATCA	-1.16
GCCAAACTCTCACTCTACTCTCTTTGGAGT	0.872
TAGACTTTGCTTTCTTGGAGGTTAACATTT	2.37
TTGTGGCATCAGGGTCCACAAGGGTTTAAA	1.92
TGATTACACAGGCCTTATAGGGCATACCCT	-0.631
CCTTGCACTATTGACCCAGTGAAACAACAC	1.65
CATGCTCTTGGAATGTTGAACCTTTCTTTG	2.64
TTTATAATCCTAGCTTGGTTTTTCTGGGAC	1.36
ACTGTCTGCTATGTGTATATGAGTGTATAG	1.35
ACGAAGGCATTCTTAACAAAACCTGTTTAG	-1.01
AAGGTACTTATCAGAGGAAATTCAGATCAA	-1.06

Sequence	binding signal (log2 normalized intensity)
AAGATAATGGGTCCGAAGGTCAGCTGACCA	5.02
ACACAGGAAGGGGGATGTCTTTTAGAAGCT	-1.05
AGAGCCCCCTTGATGCATCAGACCCCTGAG	4.13
CATAAAACATTCTATTCTATCTGTATTCTG	1.41
GGCACCAACACTTCCCAATCAGAAACCGGG	-1.16
TTCCCTTTATTTAGCCTCACTAAGATAGGG	0.266
GTTTTTGATTTTGCAGGCTGATAGGCAGAA	0.548
GTTAATTATAATCGCAGAATAAACGCTGAA	-1.09
CTGCAATCAGAGCTGGATGTGAGTTATGAC	0.741
AGTTTGCTGTCTTGACTTGGTTCGGGTTTT	1.65
AGTGTCTCTACTGTCCATCTTTTGCCCCTC	4.53
ACCTCCCGTGCCCCCTTTTGCTTTCCGTTA	2.65
CTGAACCTCTGTCTCTCAGGCACAGCTCGA	-1.05
CTCAGAAATCCCCAAACTTAAAAGAAGCTA	-0.882
CCCCAGAGGAAGACATCATATTTGTTATAT	1.24
ATTGGGATGGAGTAACTTGCTAAGTATAAA	-0.531
TAGAGTGGAGTGAAGTAAGAGTAGCAGAAG	-0.955
GAACTTTGTTTGTGTTTCCCTCCCTGGTAT	2.7
TTACTTTTGCAAGGTTTGTTCTTATCATGC	1.26
CAGTTTATTTACTGTCCTCAAACTGTCACC	0.886
CAGATCACATTGTTTTGGAGTTAGCTGTCT	1.24
CCCAGTTGCCTTCCTGTTAGATAGAGGAGT	-0.822
TTGAGGCCTTCGTTGGAAACGGGATTTCTT	-0.965
